Experimental data taken from PubChem BioAssay AID1460 (National Center for Advancing Translational Sciences (NCATS), 2008).
About 5,800 (2.1%) of roughly 270,000 compounds were called active. This list was built around the results that the source calls inconclusive (neither active nor inactive); the mix of calls is not that of the screen. Calls follow the shape of the dose curve; as a rule, active = well fitted inhibition curve with a large enough effect; inconclusive = small, poorly fitted or top-dose-only effect; inactive = flat fitted curve, though single readings scatter. Potencies beside an inconclusive call are fits to weak or partial responses and may not hold up.

molecular target: Microtubule-associated protein tau (Homo sapiens) (UniProt P10636); assay: qHTS for Inhibitors of Tau Fibril Formation, Thioflavin T Binding; details: recombinant tau K18 P301L, heparin-induced fibrillization, ThT fluorescence; series mostly up to 57.4 µM; also: nearly all actives have a fitted effect of over 55% in size
UniProt P10636, sequence (P10636 whole entry, looked up): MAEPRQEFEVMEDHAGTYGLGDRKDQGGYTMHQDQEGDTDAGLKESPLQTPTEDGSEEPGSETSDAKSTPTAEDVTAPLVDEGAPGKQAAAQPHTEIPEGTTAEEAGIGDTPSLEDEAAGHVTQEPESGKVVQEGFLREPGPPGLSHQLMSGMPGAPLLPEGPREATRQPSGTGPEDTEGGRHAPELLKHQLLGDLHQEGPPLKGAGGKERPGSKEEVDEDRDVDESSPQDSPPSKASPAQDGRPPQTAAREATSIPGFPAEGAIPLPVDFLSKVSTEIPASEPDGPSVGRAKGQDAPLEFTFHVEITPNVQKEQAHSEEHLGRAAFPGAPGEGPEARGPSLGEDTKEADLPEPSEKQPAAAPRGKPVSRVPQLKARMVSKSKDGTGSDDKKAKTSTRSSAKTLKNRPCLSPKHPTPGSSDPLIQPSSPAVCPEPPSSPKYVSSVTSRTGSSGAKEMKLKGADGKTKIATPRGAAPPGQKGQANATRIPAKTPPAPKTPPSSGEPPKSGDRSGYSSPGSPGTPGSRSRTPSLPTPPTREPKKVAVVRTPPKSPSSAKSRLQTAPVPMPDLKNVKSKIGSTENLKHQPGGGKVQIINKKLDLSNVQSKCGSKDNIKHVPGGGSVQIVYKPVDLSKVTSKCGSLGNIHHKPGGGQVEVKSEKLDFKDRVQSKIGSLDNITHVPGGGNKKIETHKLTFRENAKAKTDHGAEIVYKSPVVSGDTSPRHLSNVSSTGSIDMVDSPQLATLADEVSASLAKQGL
Summary of the method: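 ThT emission at 510 nm, taken 1 hr after adding 30 uM dye, quantifies aggregates formed when 20 uM heparin acts on human tau K18 P301L for 6 hr at 37 C.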
Potency is read from the fitted curve at half-maximal effect; tags tell the direction and shape of the fitted curve.

Structure (SMILES)	Potency
c1ccc(Nc2n[nH]nc2-c2ccccc2)cc1	inactive
Cc1ccc(/C=C\c2nccc3c2[nH]c2ccccc23)cc1	inconclusive: 17.8 µM [inhibitor, partial curve]
CCOC(=O)COn1c(-c2cccc(Cl)c2)nc2ccc([N+](=O)[O-])cc21	inconclusive: 14.1 µM [inhibitor, partial curve]
CCSC1=NC(=O)/C(=C2/C=Cc3ccccc3N2CC)S1	active: 7.08 µM
O=C1CCC(=O)N1CN(C(=O)c1ccco1)c1ccc(Cl)c(Cl)c1	inconclusive: 17.8 µM [inhibitor, partial curve, poor fit]
CCOc1ccc(S(=O)(=O)NCc2ccco2)c2ccccc12	inconclusive: 28.2 µM [inhibitor, single point]
COc1ccccc1N(Cc1cc(=O)[nH]c2ccccc12)C(=O)c1ccc([N+](=O)[O-])cc1	inconclusive: 39.8 µM [inhibitor, single point]
CC(=O)c1ccc(NC(=O)c2noc3c2CSc2ccccc2-3)cc1	inconclusive: 11.2 µM [inhibitor, partial curve, poor fit]
COc1ccccc1C1C(C(=O)c2sc(C)nc2C)=C(O)C(=O)N1CCN1CCOCC1 (centres undefined)	inconclusive: 35.5 µM [inhibitor, single point]
Cc1cc(NC(=O)Nc2cccc(Cl)c2)n(-c2ccccc2)n1	inactive
Cc1cc(C(=O)CSc2nnc(-c3ccccc3)n2Cc2ccc3c(c2)OCO3)c(C)n1C	inactive
COc1ccc(CCNC(=O)c2cnn(-c3cccc(C)c3)c2C2CCN(C(=O)OC(C)(C)C)CC2)cc1OC	inactive
CCc1ccccc1NC(=S)N1CCNC(=O)C1CC(=O)OC (centres undefined)	inactive
c1ccc2c(c1)OCC(c1nnc3sc(-c4cnccn4)nn13)O2 (centres undefined)	inconclusive: 25.1 µM [inhibitor, single point]
Cc1[nH]n(-c2ccccc2)c(=O)c1N=Nc1ccc2c(c1)OCCO2	active: 3.55 µM
CCOCCCNC(=O)C(c1ccc(Cl)cc1)N(Cc1ccc2c(c1)OCO2)C(=O)CNC(C)=O (centres undefined)	inactive
CN1C(=O)c2cccc3c(S(=O)(=O)NCc4ccco4)ccc1c23	inconclusive: 11.2 µM [inhibitor, partial curve]
CCCc1ncc(C(O)(c2ccccc2)c2ccccc2)n1C	inactive
C#CCOCCOCCOCCNc1nc(N2CCN(C(=O)[C@H](Cc3cc4ccccc4[nH]3)n3cc([C@@H](N)C(C)CC)nn3)CC2)nc(N2CCN(C(=O)[C@H](Cc3cc4ccccc4[nH]3)n3cc([C@@H](N)CC(C)C)nn3)CC2)n1 (some centres undefined)	inconclusive: 31.6 µM [inhibitor, single point]
CCCn1c(CNc2ccc(Br)cc2)nc2ccccc21	inconclusive: 28.2 µM [inhibitor, partial curve]
CCN(CC)c1ccc(C(=O)N/N=C/c2ccc(OC)cc2OC)cc1	inconclusive: 15.8 µM [inhibitor, partial curve]
COc1cc(/C=C2\SC(=S)N(NC(=O)c3ccncc3)C2=O)ccc1O	inconclusive: 12.6 µM [inhibitor, partial curve]

Structure (SMILES)	Potency
NC(=O)c1ccc(Oc2cccc3cccnc23)c([N+](=O)[O-])c1	inconclusive: 17.8 µM [inhibitor, single point]
CN1CCN(c2ccc(Cl)cc2NC(=O)c2ccc(S(=O)(=O)N(C)C)cc2)CC1	inactive
CC(c1ccccc1)n1cc2c(c1-c1ccccc1Br)c(=O)n(C)c(=O)n2C (centres undefined)	inconclusive: 25.1 µM [inhibitor, single point]
CCCCOc1cccc(C(=O)Nc2cc(NC(=O)c3ccco3)ccc2OC)c1	inconclusive: 12.6 µM [inhibitor, partial curve]
COc1ccc(N2CC(C(=O)N/N=C/c3cc([N+](=O)[O-])ccc3O)CC2=O)cc1 (centres undefined)	inconclusive: 15.8 µM [inhibitor, partial curve, poor fit]
CCc1cc(C(=O)Nc2sc(C)c(CC)c2C#N)no1	active: 28.2 µM
Nc1nc2ncc(C(=O)c3cc(Cl)cc(Cl)c3O)cc2s1	inconclusive: 8.91 µM [inhibitor, partial curve]
Cc1ccc(Cl)cc1N1CCN(C(=O)c2c(C)oc3ncnc(N4CCCCC4)c23)CC1	inconclusive: 39.8 µM [inhibitor, single point]
CCOC(=O)/C=C1\CC(=O)Nc2cc(C)c(C)cc2N1	inactive
O=C(NCc1ccccc1Cl)c1ccc2c(c1)N(Cc1ccccc1)C(=O)CS2	inactive
OC(c1ccccc1)c1nccc2ccccc12 (centres undefined)	inactive
Cn1cccc1/C=N/NC(=O)c1ccc(OC(F)(F)C(F)F)cc1	inconclusive: 20 µM [inhibitor, partial curve]
NS(=O)(=O)c1ccc(CCNc2ncnc3c2cnn3-c2cccc(Cl)c2)cc1	inactive
Cc1ccc(Sc2ncccc2COC(=O)NC(C)C)cc1	inactive
Cc1c(NC(=O)C(C)OC(=O)c2c3c(nc4ccccc24)CCC3)c(=O)n(-c2ccccc2)n1C (centres undefined)	inconclusive: 39.8 µM [inhibitor, single point]
CC(C)CSc1nc2c(c(=O)[nH]c(=O)n2C)n1CC(O)COc1cccc2ccccc12 (centres undefined)	inconclusive: 20 µM [inhibitor, partial curve]
C=CCOc1ccc2c(OC)c3ccoc3nc2c1OC	inconclusive: 15.8 µM [inhibitor, partial curve]
COCCCNC(=O)c1ccccc1Oc1ccccc1	inactive
CCSC1=C(C#N)C2(CCCCC2)C(C#N)=C(N)N1	inactive
Cc1ccc(N2CCN(/N=C/c3ccccc3)CC2)cc1	inconclusive: 2.24 µM [inhibitor, full curve, poor fit]
O=C(CCS(=O)(=O)c1ccc(Br)cc1)Nc1ccc2c(c1)OCO2	inconclusive: 39.8 µM [inhibitor, single point]
COc1cccc(Nc2sc(C(=O)c3ccc(Cl)cc3)c(N)c2C(=O)NCc2ccc(C)cc2)c1	inconclusive: 4.47 µM [inhibitor, single point]
